In PubChem BioAssay AID434955 (Southern Research Specialized Biocontainment Screening …, 2010):
The other results are listed elsewhere or left out. Further columns of the screen follow, without active or inactive calls. Most of these compounds were active or inconclusive in the main read-out, so they are no random draw.

Assay: beta-lactam sensitization of Mtb H37Rv, H37Rv (AID 434955);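 note: growth measured after seven days incubation then overnight dye step; 0% = bacteria only wells and 100% = bacteria with antibiotic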
Conditions: M. tuberculosis H37Rv growth with meropenem, percent inhibition; measured here: primary screen without meropenem; at 25 µM
Molecule `CN(CC(=O)N1CCN(Cc2ccccc2)CC1)S(=O)(=O)c1ccc(Br)cc1` has an inhibition of 18%. Molecule `COc1ccc(OC)c2nc(-c3ccc4c(c3)OCO4)ccc12` has an inhibition of 42.6%. Work on `O=C(Nc1ccccc1)C1CCN(C(=O)c2ccc(Br)cc2)CC1` yielded an inhibition of 0.23%. For `Cc1cccc(C)c1NC1=NC2(CCCCC2)N=C(N)N1`, the inhibition was -3.89%. For `COc1ccccc1NC(=O)NNC(=O)CCN1CCOCC1`, the inhibition was -2.48%. In the case of `CCOc1ccc(-c2n[nH]c(=S)n2/N=C/c2cc3c(cc2[N+](=O)[O-])OCO3)cc1`, the inhibition is reported as -2.46%. Molecule `COc1ccc(N2C(=O)CC(SCCc3nc4ccccc4[nH]3)C2=O)cc1` (centres undefined) has an inhibition of 1.13%. `O=C(Cn1c(SCc2ccccc2)nc2ccccc21)N1CCOCC1` showed an inhibition of 2.43%. `Cc1ccccc1OCC(=O)NNC(=S)NC(=O)c1ccco1` showed an inhibition of 98%. With `Cc1cc(C)c(S(=O)(=O)Nc2cccnc2)c(C)c1` the inhibition was 6.31%. For `NC(=O)c1ccc(-c2ncc(-c3ccccc3)o2)cc1`, the inhibition was 51.1%. With `O=C(O)CC1OCC=C2CN3CCC45C6=CC(=O)C(=O)C([N+](=O)[O-])=C6NC4C1C2CC35` (centres undefined) the inhibition was 7.03%. `Cc1ccc(S(=O)(=O)N2CCN(Cc3cc(C(C)C)ccc3O)CC2)cc1` gave an inhibition of -12.4%. In the case of `COc1ccc(N2C(=O)CSC2c2cccs2)cc1` (centres undefined), the inhibition is reported as 3.46%. Molecule `CCOC(=O)c1[nH]c(C)c(C(=O)NCc2ccc(C)cc2)c1C` has an inhibition of -9.59%. Work on `Cc1ccccc1C(=O)Nc1ccnn1C1CCN(Cc2cnn(C)c2)CC1` yielded an inhibition of -3.79%. `COc1ccc(CCn2c(SCC(=O)Nc3cc(C)on3)nc3ccccc3c2=O)cc1OC` gave an inhibition of 9.33%. With `COc1ccc(N2C(=O)NC(=O)/C(=C/c3ccc([N+](=O)[O-])s3)C2=O)cc1` the inhibition was 100%. `CC(/C=N/NC(=O)c1cc(-c2ccncc2)nc2ccccc12)=C\c1ccco1` gave an inhibition of 2.44%. Molecule `c1ccc(C2=Nn3c(nnc3-c3cccnc3)SC2)cc1` has an inhibition of -0.67%. For `O=C(Oc1oc(-c2ccco2)nc1C=Nc1ccc(Cl)cc1)c1ccco1`, the inhibition was 13.3%. For `COc1ccccc1/C=N/NC(=S)Nc1cccnc1`, the inhibition was 32.2%. `CCC1CCCCN1C(=O)c1ccc(OC2CCN(C(=O)COC)CC2)cc1` (centres undefined) gave an inhibition of -0.39%. For `O=C(O)c1ccc2c(c1)ncn2C1CCCCCC1`, the inhibition was 1.16%. For `COc1ccc(Nc2nnc(SCc3cc(=O)n4ccsc4n3)s2)cc1`, the inhibition was 2.31%. For `COc1cccc(NC(=O)N(C2CCCCC2)C(C)c2cccs2)c1` (centres undefined), the inhibition was -1.16%. For `CC(C)c1cc(CNC(=O)C2CCC(=O)N(Cc3ccccc3F)C2)on1` (centres undefined), the inhibition was -0.4%. Molecule `O=C(NC(=S)Nc1ccc(Cl)c(C(=O)O)c1)c1cccc(COc2ccccc2)c1` has an inhibition of 52.2%. For `COc1ccc(C(=O)N2CCCC(Nc3ccc(C)c(C)c3)C2)cc1F` (centres undefined), the inhibition was 13.6%. In the case of `O=C(CN1C(=O)c2cccnc2Oc2ccc(Cl)cc21)NC1CCCCCC1`, the inhibition is reported as 6.18%. Work on `O=S(=O)(Nc1cccc(-n2cnnn2)c1)c1ccc(Cl)nc1` yielded an inhibition of 1%. `CC1CCCN(C(=O)c2ccc3c(c2)OCO3)C1` (centres undefined) showed an inhibition of 6.37%. For `CCn1c(O)c(/C=N/NC(=O)c2ccccc2)c(=O)n(CC)c1=S`, the inhibition was 4.42%. For `CCn1cc(C(=O)O)c(=O)c2cc(F)c(N/N=C/c3ccccc3)cc21`, the inhibition was 28%. Molecule `COc1cc(/C=N/n2c(COc3ccccc3)n[nH]c2=S)cc(OC)c1OC(C)=O` has an inhibition of 4.77%. `O=C(CN(c1cc(C(F)(F)F)ccc1Cl)S(=O)(=O)c1ccccc1)NCc1cccnc1` gave an inhibition of -3.98%. `O=C(CN1CCOCC1)NCCNS(=O)(=O)c1ccccc1` showed an inhibition of -2.86%. In the case of `O=C(/C=C/c1ccccn1)c1cc(Br)ccc1O`, the inhibition is reported as 11.9%. In the case of `Cc1noc(C)c1COc1cccc(C(=O)OC(C)C(=O)Nc2ccc3c(c2)OCO3)c1` (centres undefined), the inhibition is reported as -0.96%. `O=C(CCN1C(=O)/C(=C/c2ccccc2Cl)SC1=S)Nc1ccccn1` showed an inhibition of 95.9%. Work on `O=C(c1cc(COc2ccccc2)on1)N1CCCC(OCc2cccnc2)C1` (centres undefined) yielded an inhibition of 4.22%. With `CCOc1nc(-c2ccccc2)ccc1-c1noc(-c2ccco2)n1` the inhibition was 12.4%. Work on `COc1ccc(NC(=O)CSc2nccn2Cc2ccco2)cc1` yielded an inhibition of -2.88%. In the case of `CC1=CC(C)(C)N(S(=O)(=O)c2ccc(F)cc2)c2ccccc21`, the inhibition is reported as -0.1%. Molecule `CSc1nnc2c(n1)OC(c1cccn1C)N(C(C)=O)c1ccccc1-2` (centres undefined) has an inhibition of -5.01%. Molecule `CC(=O)Nc1ccc(S(=O)(=O)N2CCNC(=O)CC2)cc1` has an inhibition of -1.88%. `Cc1cc(Nc2ccc(C(=O)O)cc2)n2nc(C)nc2n1` gave an inhibition of -2.73%. In the case of `COc1cc(C(=O)NCCC(=O)NCc2ccc3c(c2)OCO3)cc(OC)c1OC`, the inhibition is reported as -1.93%. For `Cc1nc2c(-c3ccccc3)cnn2c(N2CCOCC2)c1C`, the inhibition was 5.69%. `COC(=O)c1ccc(C(=O)OC)c(NC(=O)c2cnc3n(c2=O)CCS3)c1` showed an inhibition of -0.37%. Molecule `COC(=O)CNc1c(-c2ccccc2)nc2ccc(Br)cn12` has an inhibition of -7.8%. Molecule `O=C(O)c1cc(-c2ccccn2)n[nH]1` has an inhibition of -10.9%. `O=C(CSc1nnnn1-c1ccccc1)Nc1ncc2c(n1)CC(c1ccccc1)CC2=O` (centres undefined) showed an inhibition of 11%. Molecule `Cc1c(C(=O)OCCN2CCCCC2)oc2ccccc12` has an inhibition of -1.07%. For `Cc1nnc(SCc2cnc(-c3ccc(C(C)C)cc3)s2)n1C`, the inhibition was 1.23%. `CN(C)C(=O)c1ccc(-n2nc(C(F)(F)F)c3c2CCCC3)cc1` gave an inhibition of 22.9%. For `CN(Cc1ccccc1)C(=S)NC(=O)c1ccc(-c2ccccc2)cc1`, the inhibition was 26.7%. Molecule `CN1CCCC(OC(=O)c2ccc(C#N)cc2)C1` (centres undefined) has an inhibition of -5.71%. `COc1ccc(C2(C)NC(=O)N(CC(=O)Nc3cccnc3Cl)C2=O)cc1` (centres undefined) gave an inhibition of 8.35%. In the case of `COc1ccc(NC(=O)c2cc(C)nc3ccccc23)c(OC)c1`, the inhibition is reported as 22%. `CN1CCc2c(sc(NC(=O)C3COc4ccccc4O3)c2C(N)=O)C1` (centres undefined) showed an inhibition of 2.65%. Work on `COc1ccc(C(=O)Nc2cccc(C(=O)O)c2)cc1S(=O)(=O)N1CCCC1` yielded an inhibition of -18.2%. With `Cc1ccc(S(=O)(=O)NC(=NCC(=O)O)c2ccc(F)cc2)cc1` the inhibition was 2.94%. `O=C1c2cccnc2C(=O)N1c1ccccc1-c1ccccc1` gave an inhibition of 24%. Work on `CCN(CC)c1ccc(CN2CCCCCC2)cc1` yielded an inhibition of 27.1%. Work on `Cc1cc(SCC(=O)N2CCC(c3noc4ccc(F)cc34)CC2)nc2ccccc12` yielded an inhibition of -0.11%. With `CCn1nc(C)cc1C(=O)N(C)C1CCCN(Cc2ccccc2F)C1` (centres undefined) the inhibition was 2.33%. `COCCNC(=O)c1ccc(NC(=O)C2(c3ccccc3)CCCC2)cc1` showed an inhibition of 40.9%. `COc1ccc(C(=O)CSc2nnc(-c3cnccn3)n2Cc2ccco2)cc1` showed an inhibition of 4.29%. `CC1Cc2ccccc2N1C(=O)COc1cccc(-n2cnnn2)c1` (centres undefined) gave an inhibition of -2.19%. `COC(=O)C(C)Sc1nc2c(c(-c3ccc(OC)cc3)c1C#N)-c1ccccc1C2=O` (centres undefined) showed an inhibition of 2.5%. Molecule `COc1ccccc1CN1CC(C(=O)NCc2ncccc2C)CCC1=O` (centres undefined) has an inhibition of 0.53%. In the case of `NC(=S)N/N=C/c1ccc(/C=N/NC(N)=S)cc1`, the inhibition is reported as -2.77%. With `CCN(CC)C1CCN(C(=O)c2ccc(OC3CCN(CCc4ccccc4)CC3)cc2)C1` (centres undefined) the inhibition was -13.9%. For `COc1ccc(C(=O)O)cc1NC(=S)NC(=O)C(c1ccccc1)c1ccccc1`, the inhibition was 10.1%. Molecule `Cc1ccc(C2CC(c3ccc(C)cc3)n3nc(N)nc3N2)cc1` (centres undefined) has an inhibition of 3.75%. For `CC(=O)NC(Cc1ccc(F)cc1)C(=O)N1CCN(C(=O)NCc2ccccc2)CC1` (centres undefined), the inhibition was 1.65%. With `CC1Cc2ccccc2N1c1ncnc2c1nnn2Cc1ccccc1` (centres undefined) the inhibition was 4.96%. `Cc1cc(NC(=O)c2cc3n(n2)C(C(F)(F)F)CC(c2ccc(Cl)c(Cl)c2)N3)no1` (centres undefined) showed an inhibition of -10%. In the case of `CC1CN(C2CCCCC2)c2nc3c(c(=O)[nH]c(=O)n3C)n2C1` (centres undefined), the inhibition is reported as 13.3%. In the case of `c1ccc(Cn2nnc3c(NCCN4CCOCC4)ncnc32)cc1`, the inhibition is reported as -3.24%. `Fc1ccc(F)c(CN2CCN(c3ncccn3)CC2)c1` gave an inhibition of 1.38%. Work on `Cc1c(C(=O)N2CCN(CCc3ccccc3)CC2)oc2ccccc12` yielded an inhibition of 3.01%. In the case of `CCOC(=O)C1CCN(Cc2ccc(OC)cc2OC)CC1`, the inhibition is reported as -13.1%. In the case of `CCN(CC)CCCN1C(=O)C(O)=C(C(=O)c2cc3cccc(OC)c3o2)C1c1ccncc1` (centres undefined), the inhibition is reported as 0.25%. `Cc1ccc(C(=O)/C=C/c2cc(Br)cc(Br)c2O)o1` showed an inhibition of 39.6%. With `CC1CCN(S(=O)(=O)c2ccc(Cl)cc2Br)CC1` the inhibition was 2.78%. With `Cc1c(NC(=O)c2noc3c2CCc2ccccc2-3)c(=O)n(-c2ccccc2)n1C` the inhibition was 43%. Work on `CSCC(=O)Nc1ccc(F)c(Cl)c1` yielded an inhibition of -0.69%. Work on `Cc1ccc(CN2C(=O)N/C(=C\c3ccc(-c4ccc(C(=O)O)cc4C)o3)C2=O)cc1` yielded an inhibition of 37.5%. Molecule `S=c1[nH]nc(COc2ccccc2)n1/N=C/c1ccc(Br)cc1` has an inhibition of -4.69%. With `COc1ccc(/C=N/NC(=O)CNc2n[nH]c(=O)[nH]c2=O)cc1OC` the inhibition was 0.25%. In the case of `CCCCn1c(N)c(N(CC(C)C)C(=O)c2cccc(S(=O)(=O)N3CCCCCC3)c2)c(=O)[nH]c1=O`, the inhibition is reported as 2.17%. With `COc1cc(C)ccc1OCc1cc(C(=O)NCc2ccncc2)no1` the inhibition was -1.26%. Molecule `CCCOc1ccc(C(=O)CCN2CCCCC2)cc1` has an inhibition of 23.5%. `COc1ccc(Cc2nn3c(-c4ccccc4OC)nnc3s2)cc1` gave an inhibition of -1.03%. `CSc1ccc(NC(=O)NCCCN2CCC(Cc3ccccc3)CC2)cc1` showed an inhibition of 7.66%. For `CC(=O)c1c(N2CCN(Cc3ccccc3)CC2)[nH]c(-c2ccccc2)nc1=S`, the inhibition was -2.96%. In the case of `CCOC(=O)Cn1nc(-c2ccc(C)cc2)ccc1=O`, the inhibition is reported as -1.62%. For `CN1CCN(C(=O)CN(C2CCCCC2)S(=O)(=O)c2ccc(Br)cc2)CC1`, the inhibition was -3.48%. `COc1cccc(NC(=O)Cn2cc3c(n2)CCCCC3)c1` showed an inhibition of -6.53%. Work on `CCCCSCCCNC(=O)CS(=O)Cc1nc(-c2cccc(C)c2)oc1C` (centres undefined) yielded an inhibition of 71.6%. In the case of `COc1ccc(C2(CNC(=O)c3cc([N+](=O)[O-])cc([N+](=O)[O-])c3)CCCC2)cc1OC`, the inhibition is reported as 54.8%. `O=C(COc1ccc2ccc(=O)oc2c1)NCc1ccccn1` showed an inhibition of 1.95%. For `COc1ccc(C(=O)N2CCN(C)C(C)C2)cc1OC1CCN(C(C)=O)CC1` (centres undefined), the inhibition was 1.61%. Molecule `COC(=O)C1=C(C)N(CC2CCCO2)C(=O)C1` (centres undefined) has an inhibition of -1.5%. Work on `O=C(CN1CCC(NC(=O)c2cccc(F)c2)CC1)NCc1ccccc1F` yielded an inhibition of -1.22%. For `CCOC(=O)N1CCN(C(=O)COCc2cc(-c3ccc4c(c3)OCO4)on2)CC1`, the inhibition was 3.11%. Molecule `Cc1ccc(Cn2c(CN3CCN(C(=O)c4ccco4)CC3)nc3c2c(=O)n(C)c(=O)n3C)cc1` has an inhibition of -9.23%.
